Experimental data taken from US9873709B2 (priority 2013, dated 2018).

The compounds below were run against isolated recombinant JAK1 kinase domain (Homo sapiens (Human), UniProt P23458). Details: read-out: JAK1 Ki; isolated recombinant JAK1 kinase domain, 25 μM ATP.

Ki	Structure (SMILES)
1.18 nM	O=C(CCC(F)(F)F)N1CC=C(c2cccn3nc(Nc4ccc(C(=O)N5CCO[C@@H]6CNC[C@@H]65)cc4)nc23)CC1 [Example 2-139, 1-[4-[2-[4-[(4aS,7aR)-3,4a,5,6,7,7a-hexahydro-2H-pyrrolo[3,4-b][1,4]oxazine-4-carbonyl]anilino]-[1,2,4]triazolo[1,5-a]pyridin-8-yl]-3,6-dihydro-2H-pyridin-1-yl]-4,4,4-trifluoro-butane-1-one]
4.29 nM	O=C(CCC(F)(F)F)N1CC=C(c2cccn3nc(Nc4ccc(C(=O)N5CC(C6CCCNC6)c6ccccc65)cc4)nc23)CC1 (stereo not drawn) [Example 2-140, 4,4,4-trifluoro-1-[4-[2-[4-[3-(3-piperidyl)indoline-1-carbonyl]anilino]-[1,2,4]triazolo[1,5-a]pyridin-8-yl]-3,6-dihydro-2H-pyridin-1-yl]butan-1-one]
2.99 nM	CN(Cc1cccc2cccnc12)C(=O)c1ccc(Nc2nc3c(C4=CCN(C(=O)CCC(F)(F)F)CC4)cccn3n2)cc1 [Example 2-141, N-methyl-N-(8-quinolylmethyl)-4-[[8-[1-(4,4,4-trifluorobutanoyl)-3,6-dihydro-2H-pyridin-4-yl]-[1,2,4]triazolo[1,5-a]pyridin-2-yl]amino]benzamide]
1.18 nM	N#CCCN1CCN(C(=O)c2ccc(Nc3nc4c(C5=CCN(C(=O)CCC(F)(F)F)CC5)cccn4n3)cc2)CC1 [Example 2-142, 3-[4-[4-[[8-[1-(4,4,4-trifluorobutanoyl)-3,6-dihydro-2H-pyridin-4-yl]-[1,2,4]triazolo[1,5-a]pyridin-2-yl]amino]benzoyl]piperazin-1-yl]propanenitrile]
0.91 nM	Cc1ccc(C2CCCN2C(=O)c2ccc(Nc3nc4c(C5=CCN(C(=O)CCC(F)(F)F)CC5)cccn4n3)cc2)nc1 (stereo not drawn) [Example 2-143, 4,4,4-trifluoro-1-[4-[2-[4-[2-(5-methyl-2-pyridyl)pyrrolidine-1-carbonyl]anilino]-[1,2,4]triazolo[1,5-a]pyridin-8-yl]-3,6-dihydro-2H-pyridin-1-yl]butan-1-one]
0.98 nM	CN1CCN(C(=O)c2ccc(Nc3nc4c(C5=CCN(C(=O)CCC(F)(F)F)CC5)cccn4n3)cc2)CC(CO)C1 (stereo not drawn) [Example 2-144, 4,4,4-trifIuoro-1-[4-[2-[4-[6-(hydroxymethyl)-4-methyl-1,4-diazepane-1-carbonyl]anilino]-[1,2,4]triazolo[1,5-a]pyridin-8-yl]-3,6-dihydro-2H-pyridin-1-yl]butan-1-one]
1.63 nM	O=C(CCC(F)(F)F)N1CC=C(c2cccn3nc(Nc4ccc(C(=O)N5Cc6cccnc6C5)cc4)nc23)CC1 [Example 2-146, 1-[4-[2-[4-(5,7-dihydropyrrolo[3,4-b]pyridine-6-carbonyl)anilino]-[1,2,4]triazolo[1,5-a]pyridin-8-yl]-3,6-dihydro-2H-pyridin-1-yl]-4,4,4-trifluoro-butan-1-one]
0.44 nM	Cc1ccc(CNC(=O)c2ccc(Nc3nc4c(C5=CCN(C(=O)CCC(F)(F)F)CC5)cccn4n3)cc2)cn1 [Example 2-148, N-[(6-methyl-3-pyridyl)methyl]-4-[[8-[1-(4,4,4-trifluorobutanoyl)-3,6-dihydro-2H-pyridin-4-yl]-[1,2,4]triazolo[1,5-a]pyridin-2-yl]amino]benzamide]
0.87 nM	CN1CCC(C2CCCCN2C(=O)c2ccc(Nc3nc4c(C5=CCN(C(=O)CCC(F)(F)F)CC5)cccn4n3)cc2)CC1 (stereo not drawn) [Example 2-149, 4,4,4-trifluoro-1-[4-[2-[4-[2-(1-methyl-4-piperidyl)piperidine-1-carbonyl]anilino]-[1,2,4]triazolo[1,5-a]pyridin-8-yl]-3,6-dihydro-2H-pyridin-1-yl]butane-1-one]
1.25 nM	CN1CCC(N(C(=O)c2ccc(Nc3nc4c(C5=CCN(C(=O)CCC(F)(F)F)CC5)cccn4n3)cc2)C2CC2)CC1 [Example 2-150, N-cyclopropyl-N-(1-methyl-4-piperidyl)-4-[[8-[1-(4,4,4-trifluorobutanoyl)-3,6-dihydro-2H-pyridin-4-yl]-[1,2,4]triazolo[1,5-a]pyridin-2-yl]amino]benzamide]
1.49 nM	O=C(CCC(F)(F)F)N1CC=C(c2cccn3nc(Nc4ccc(C(=O)N5CCN6CCCCC6C5)cc4)nc23)CC1 (stereo not drawn) [Example 2-151, 1-[4-[2-[4-(1,3,4,6,7,8,9,9a-octahydropyrido[1,2-a]pyrazine-2-carbonyl)anilino]-[1,2,4]triazolo[1,5-a]pyridin-8-yl]-3,6-dihydro-2H-pyridin-1-yl]-4,4,4-trifluoro-butan-1-one]
1.67 nM	CN(CCc1ccccn1)C(=O)c1ccc(Nc2nc3c(C4=CCN(C(=O)CCC(F)(F)F)CC4)cccn3n2)cc1 [Example 2-152, N-methyl-N-[2-(2-pyridyl)ethyl]-4-[[8-[1-(4,4,4-trifluorobutanoyl)-3,6-dihydro-2H-pyridin-4-yl]-[1,2,4]triazolo[1,5-a]pyridin-2-yl]amino]benzamide]
1.03 nM	O=C(CCC(F)(F)F)N1CC=C(c2cccn3nc(Nc4ccc(C(=O)N5CCN(CCO)CC5)cc4)nc23)CC1 [Example 2-153, 4,4,4-trifluoro-1-[4-[2-[4-[4-(2-hydroxyethyl)piperazine-1-carbonyl]anilino]-[1,2,4]triazolo[1,5-a]pyridin-8-yl]-3,6-dihydro-2H-pyridin-1-yl]butan-1-one]
0.91 nM	O=C(CCC(F)(F)F)N1CC=C(c2cccn3nc(Nc4ccc(C(=O)N5CCOC(c6ccccn6)C5)cc4)nc23)CC1 (stereo not drawn) [Example 2-154, 4,4,4-trifluoro-1-[4-[2-[4-[2-(2-pyridyl)morpholine-4-carbonyl]anilino]-[1,2,4]triazolo[1,5-a]pyridin-8-yl]-3,6-dihydro-2H-pyridin-1-yl]butan-1-one]
1.51 nM	O=C(CCC(F)(F)F)N1CC=C(c2cccn3nc(Nc4ccc(C(=O)N5CCC(c6cc7cccnc7[nH]6)CC5)cc4)nc23)CC1 [Example 2-155, 4,4,4-trifluoro-1-[4-[2-[4-[4-(1H-pyrrolo[2,3-b]pyridin-2-yl)piperidine-1-carbonyl]anilino]-[1,2,4]triazolo[1,5-a]pyridin-8-yl]-3,6-dihydro-2H-pyridin-1-yl]butan-1-one]
0.56 nM	O=C(CCC(F)(F)F)N1CC=C(c2cccn3nc(Nc4ccc(C(=O)N5CCC(c6ccccn6)CC5)cc4)nc23)CC1 [Example 2-156, 4,4,4-trifluoro-1-[4-[2-[4-[4-(2-pyridyl)piperidine-1-carbonyl]anilino]-[1,2,4]triazolo[1,5-a]pyridin-8-yl]-3,6-dihydro-2H-pyridin-1-yl]butan-1-one]
0.71 nM	CC1CN(C2CCN(C(=O)c3ccc(Nc4nc5c(C6=CCN(C(=O)CCC(F)(F)F)CC6)cccn5n4)cc3)CC2)CC(C)O1 (stereo not drawn) [Example 2-157, 1-[4-[2-[4-[4-(2,6-dimethylmorpholin-4-yl)piperidine-1-carbonyl]anilino]-[1,2,4]triazolo[1,5-a]pyridin-8-yl]-3,6-dihydro-2H-pyridin-1-yl]-4,4,4-trifluoro-butan-1-one]
1.05 nM	CN(C)[C@H]1CCN(C(=O)c2ccc(Nc3nc4c(C5=CCN(C(=O)CCC(F)(F)F)CC5)cccn4n3)cc2)C1 [Example 2-158, 1-[4-[2-[4-[(3S)-3-(dimethylamino)pyrrolidine-1-carbonyl]anilino]-[1,2,4]triazolo[1,5-a]pyridin-8-yl]-3,6-dihydro-2H-pyridin-1-yl]-4,4,4-trifluoro-butan-1-one]
